The test system of this assay is NCI-H322M lung. The assay can be described thus: growth of human tumour cells (NCI), 48 h.

Structures are written as SMILES.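 Where inhibition never reached the appropriate level, the endpoint shown equals the highest concentration tested. Otherwise, values were interpolated linearly from a five-concentration, 48-hour dose response in 96-well plates. GI50 marks 50% less growth. TGI: concentration producing complete growth inhibition.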

Consider `c1ccc(CSc2nnc(-c3ccc4nc(-c5ccccc5)[nH]c4c3)o2)cc1`, for which the GI50 is 17 µM and the TGI was found to be 42.1 µM.

On to `N/C(=N\c1nc2ccccc2s1)NC(=O)Nc1ccccc1Br`, for which the GI50 was 0.256 µM and the TGI is above 82.1 µM.

The record behind these values is PubChem BioAssay (NCI).
